In PubChem BioAssay AID1963576 (National Center for Advancing Translational Sciences (NCATS), 2024):
Screen size: about 46,000 compounds; about 60 (0.1%) were called active. Another 3% or so got no clear call; they are omitted. Calls come from the whole dose curve; as a rule, active = well fitted inhibition curve with a large enough effect; inconclusive = small, poorly fitted or top-dose-only effect; inactive = no such curve, though single readings can be large or run the other way. The list shows a part of the results.

Experiment: Primary qHTS assay for Inhibitors of ovarian cancer metastasis using an organotypic tumor microenvironment (TME) model.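 For activity change, negative = inhibition: plate controls were DMSO wells for no effect and tomatine positive control wells for full effect.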 Note: nearly all actives have a fitted effect of over 65% in size.
Settings: SKOV3ip1-GFP adhesion/invasion on 3D omental model, fluorescence; series mostly up to 45.8 µM; activity change, negative = inhibition: at the top concentration
Summary of the method: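 Adhesion/invasion was scored as fixed GFP-labeled SKOV3ip1 cell counts (488/509 nm), normalized to DMSO and tomatine controls. Cancer cells in serum-free medium, with four compound doses (0.36-46 umol/L), sat 2 hr at RT then 16 hr at 37 C on a 48 hr fibroblast/mesothelial/ECM culture.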

Activity change, negative = inhibition, inactive:
Cc1ccc2[nH]c(CSc3nnc(NC(=O)c4ccccc4C)s3)cc(=O)c2c1 -10.8%
Cc1ccc(CCNC(=O)c2cn(C)c3ccc(S(=O)(=O)N4CCCCC4)cc3c2=O)cc1 19.9%
COc1c(Cl)cc2c([nH]c3cnccc32)c1NC(=O)c1cccnc1C -0.837%
COc1ccc(C(=O)Nc2nnc(S(=O)(=O)N(C)c3ccc(Cl)cc3)s2)cc1OC -2.42%
COc1cc(-c2nc3ncccn3c2Nc2ccc(C)cc2C)ccc1O -16.1%
O=C(CSc1nc2ccccc2nc1Cc1ccccc1)N1CCCCC1 -0.955%
O=C(NCc1ccccc1Cl)c1cc2ccccc2o1 3.29%
COc1cc(OC)cc(C(=O)Nc2ccc3c(c2)N(C2CCCC2)C(=O)c2ccccc2S3)c1 -0.457%
CCOc1ccccc1NC(=O)Cn1cnc2sc(C)c(S(=O)(=O)N3CCC(C)CC3)c2c1=O 5.85%
COc1cccc(Nc2c3c(nc4nncn24)CCC3)c1 -3.83%
CCCCOc1cccc(C(=O)Nc2ccc3oc(-c4cccnc4)nc3c2)c1 4.61%
Cc1ccc(C)c(N2CCN(S(=O)(=O)c3c(C)nc4sccn4c3=O)CC2)c1 6.82%
CCOc1ccc(-c2nnc(SCC(=O)NCc3ccccc3)nc2-c2ccc(OCC)c(OC)c2)cc1OC 33.5%
CCc1ccc(C2CC(=O)Nc3c2c(C)nn3-c2nc(C)cc(C)n2)cc1 (stereo not drawn) 3.47%
COc1cccc2cc(C(=O)NCCc3c(C)[nH]c4ccc(Br)cc34)c(=O)oc12 -8.44%
COc1ccc(NC(=O)C2CCCN(S(=O)(=O)c3ccc4c(c3)CCCC(=O)N4)C2)c(OC)c1 (stereo not drawn) 5.24%
CCc1ccc(N(CC)C(=O)Cn2c(=O)oc3ccccc32)cc1 2.14%
Cc1nc2scc(C)n2c(=O)c1S(=O)(=O)Nc1ccc(N2CCOCC2)cc1 2.35%
Cc1ccc(-n2ncc(C(=O)Nc3ccc4c(c3)OCO4)c2C2CCN(C(=O)OC(C)(C)C)CC2)cc1 -0.0584%
Cc1ccnc(NS(=O)(=O)c2cc(-c3cc(C)no3)ccc2C)c1 -4.77%
CCN(C(=O)Cn1c(=O)oc2cc(Cl)ccc21)c1cccc(C(F)(F)F)c1 4.28%
Cc1ccc(CCNC(=O)C2CCN(c3nnc(-n4cccc4CNc4ccc(C)cc4)s3)CC2)cc1 -5.39%
Cc1ccc(-c2cnc(NCc3ccc(C(F)(F)F)cc3)n2C)cc1 19.1%
COc1ccc(/C=C/C(=O)Nc2nc3n(n2)C(c2ccccc2)C=C(c2ccccc2)N3)cc1 (stereo not drawn) 6.74%
CC(C)(C)NC(=O)c1cnn2c(C(F)F)cc(-c3ccccc3)nc12 21.4%
O=C(CN1C(=O)CC(c2ccccc2)Sc2ccccc21)Nc1cccc(Cl)c1 (stereo not drawn) -3.93%
CCOCCn1ccc2c(OCC(=O)Nc3ccc(OC(F)(F)F)cc3)cccc2c1=O -6.68%
CC(=O)c1cccc(NC(=O)CCS(=O)(=O)c2ccc(Br)s2)c1 -2.33%
CCOC(=O)c1cc2c(=O)n3ccccc3nc2n(CC(C)C)c1=NC(=O)c1cc2ccccc2o1 -0.627%
Cc1ccc(S(=O)(=O)c2cn(Cc3ccc(F)cc3)c3cc(F)c(F)cc3c2=O)cc1 6.27%
O=C(NCc1ccccc1Cl)c1cnc2sc(N3CCCCC3)nn2c1=O 0.372%
CN1C(=O)C2(c3ccccc31)N(c1cccc(F)c1)C(=O)CS2(=O)=O (stereo not drawn) 1.79%
COCCCNC(=O)c1cc(-c2cccnc2)nc2ccc(S(=O)(=O)N3CCC(C)CC3)cc12 -5.99%
O=S(=O)(c1ccc(Br)cc1)c1nc(-c2cccs2)oc1SCc1ccccc1F -1.48%
O=C(Cn1nnc(-c2ccc(Cl)cc2)n1)NCc1ccc(F)cc1 -7.42%
COc1ccc(OC)c(CNS(=O)(=O)c2c(C(=O)N3CCCCCC3)c(C)n(C)c2C)c1 2.07%
Cc1ccc(CNC(=O)Cn2cc(S(=O)(=O)Cc3ccccc3F)c3ccccc32)cc1 1.97%
COc1ccc(Cl)cc1NC(=O)CSC1=Nc2ccccc2C2=NC(CC(=O)NCc3ccc4c(c3)OCO4)C(=O)N12 (stereo not drawn) 6.34%
Cc1ccc(NC(=O)c2cnc(SCC(=O)Nc3cc(C)on3)n(C)c2=O)cc1 -0.92%
COc1ccccc1N1CCN(C(=O)CCNS(=O)(=O)c2ccc3c(c2)CCN3C(=O)C2CC2)CC1 40.3%
CCc1ccccc1NC(=O)c1cnc2sc(N3CCOCC3)nn2c1=O -4.47%
CCOC(=O)c1ccc(NC(=O)CC2C(=O)N(c3cccc(OC)c3)C(=O)N2Cc2ccc(OC)cc2)cc1 (stereo not drawn) 7.11%
COc1ccc(C(CC(=O)NCc2ccccc2)N2Cc3ccccc3C2=O)cc1 (stereo not drawn) -7.49%
CCC(Oc1ccc(F)cc1)C(=O)Nc1nc(-c2ccc(F)cc2)ns1 (stereo not drawn) -9.59%
CCn1c(=O)n(CC)c2cc(N3CCCCC3)c(NC(=O)Nc3ccccc3C(F)(F)F)cc21 -12.9%
COc1ccccc1C(=O)Nc1ccc2c(c1)nc(CN1CCCCC1)n2C -2.82%
C=CCc1ccccc1OCC(O)CN1CCN(c2ccccc2)CC1 (stereo not drawn) -16.3%
Cc1ccc(-c2nc3ccc(Cl)cn3c2Nc2ccccc2C)s1 -0.0792%
Cc1sc2c(c1C)c(=O)n(-c1cccc(C(F)(F)F)c1)c(=O)n2Cc1ccc(F)cc1 -6.26%
CN(Cc1ccccc1)C(=O)CSc1nc2ccccc2n1Cc1ccccc1F 9.43%
CC(C)c1cnc2c(c1SCC(=O)NCc1ccccc1)c(=O)n(C)c(=O)n2C -2.29%
COc1ccc(CNC(=O)c2cnc3cc(C)ccn3c2=O)cc1 6.02%
CCCCN(CC)C(=O)Cn1nc(C)c2c(C)n(-c3ccccc3)nc2c1=O 17.7%
O=C(c1ccccc1)c1ccc2nc(Nc3ccccc3Cl)c3nncn3c2c1 2.35%
CCOC(=O)c1c(C)oc2nc(C)nc(NCc3cccc(OC)c3)c12 5.93%
CCOCN(C(=O)CSc1nc2ccccc2[nH]1)c1c(C)cccc1CC 15.3%
CCn1c(=O)cc(SCC(=O)N2CCN(c3cc(C)ccc3C)CC2)c2ccccc21 -2.82%
COc1ccccc1NC(=O)CCNS(=O)(=O)c1ccc2c(c1)CCCC(=O)N2 -8.44%
Cc1ccc(N2CC(C(=O)Nc3ccc(Cl)cc3Cl)CC2=O)cc1 (stereo not drawn) 0.244%
CCOC(=O)c1cc(OC(=O)c2ccc(OC)c(OC)c2)n(-c2ccccc2)n1 6.26%
Cc1nn(C(C)C(=O)NCc2cccc(F)c2)c(=O)c2c1sc1ccccc12 (stereo not drawn) 7.42%
CCc1ccc(-c2csc(-c3cc4cc(Br)ccc4oc3=O)n2)cc1 -6.64%
COc1ccc(C(=O)Nc2nnc(S(=O)(=O)N3CCOCC3)s2)cc1 7.49%
CCOc1ccccc1CNC(=O)c1cnc2sc(N3CCC(C)CC3)nn2c1=O 2.57%
CN(Cc1cc(Br)cc(Br)c1N)C1CCCCC1 -2.61%
O=C(CSc1nnc(-c2ccccc2)o1)N1CCCc2ccccc21 -3.87%
CCOC(=O)N1CCc2c(sc3c2c(=O)n(-c2ccc(Cl)cc2)c(=O)n3CC(=O)Nc2ccccc2)C1 5.59%
COc1ccc(C)cc1NC(=O)C(NS(=O)(=O)c1cccc2nsnc12)c1ccccc1 (stereo not drawn) -6.66%
CCN(CC)C(=O)Cn1cc(SCC(=O)Nc2ccc(C)cc2)c2ccccc21 4.23%
Cn1cnc2c(F)c(Nc3ccc(Br)cc3Cl)c(C(=O)NOCCO)cc21 10.3%
Cc1cc(C)c2c(C)c(C(=O)N3CCC(c4nc5ccccc5s4)CC3)oc2c1 -9.1%
Nc1nc(N)c2nc(-c3cccc(O)c3)c(-c3cccc(O)c3)nc2n1 -8.96%
CCn1c2ccc(F)cc2c2nnc(SCCN3CCCCC3)nc21 -3.73%
Cc1ccc(NC(=O)CCC(=O)N2CCOc3ccccc32)c(Cl)c1 10.1%
Cc1ccc(C(=O)Nc2ccccc2F)cc1S(=O)(=O)N1CCOCC1 -6.33%
COc1cc(C2c3c(oc4ccc(C)cc4c3=O)C(=O)N2Cc2ccc(F)cc2)ccc1O (stereo not drawn) 6.63%
COc1ccc(C2Nc3ccccc3-c3nnc(SC)nc3O2)cc1C (stereo not drawn) -3.74%
Cc1c(C(=O)Nc2ccc(Br)cc2F)sc2ncnc(N(C)C3CCCCC3)c12 6.85%
COc1cc(CN2CCc3nc(N4CCN(c5ccccc5F)CC4)ncc3C2)ccc1OC(C)C 4.55%
O=C(Nc1ccc2nc(SCC(=O)N3CCCc4ccccc43)sc2c1)c1ccc(F)cc1 -15.4%
CCCCN(CC)C(=O)Cn1c(=O)n(-c2ccc(OCC)cc2)c(=O)c2c3c(sc21)CCCC3 -0.864%

outcome, inactive:
CCCS(=O)(=O)N1CCCC(C(=O)NCCCOC)C1 (stereo not drawn)
Cc1ccccc1CNC(=O)C(=O)NCC(c1ccco1)S(=O)(=O)c1ccccc1 (stereo not drawn)
CCc1cccc(NC(=O)CCS(=O)(=O)c2cc(Br)cc3c2N(C(C)=O)CC3)c1
Cc1cc(C)cc(-n2c(SCC(N)=O)nc3c(oc4ccccc43)c2=O)c1
CCOc1ccccc1NC(=O)N1CCN(Cc2nc3ccc(C)cc3o2)CC1
Cc1nn(S(=O)(=O)c2ccc(F)cc2)c(C)c1S(=O)(=O)N1CCC(C)CC1
Clc1ccccc1CNc1nc2ccccc2c2nc(-c3cccnc3)nn12
COc1ccc(Cl)cc1NC(=O)c1c(NCc2sccc2C)sc2c1CCCC2
Cc1cc(C)n2nc(SCC(=O)Nc3cccc(C(F)(F)F)c3)nc2n1
COc1ccccc1Cc1nc2ccccc2nc1SCC(=O)Nc1cccc(Cl)c1C
COC(=O)c1ccc(NC(=O)CCc2c(C)nc3c(c2C)c(=O)n(C)c(=O)n3C)cc1
Cc1ccccc1NC(=O)CSc1nc(=O)n(CCN2CCOCC2)c2c1CCC2
COc1cc(NC(=O)CSC2=Nc3ccccc3N=C(c3ccc(F)cc3)C2)cc(OC)c1
COc1ccccc1CNC(=O)CCCn1c(=O)c2ccccc2n(Cc2ccccc2F)c1=O
Cc1ccc(C)c(N2CCN(C(=O)Cn3nc(Cc4cccnc4)c4ccccc4c3=O)CC2)c1
Cc1cccc(CNC(=O)C2CCN(c3nc4ccc(Cl)cc4[nH]3)CC2)c1
Cc1nc2c3ccccc3nc(NNC(=O)CCC(=O)N3CCN(c4ccccc4F)CC3)n2n1
